Data as given in publication PMC8991247.
Results are given in words; binding and its absence hold for the method and conditions named. Binding seen in cells or lysates may run through a third protein. Some binding calls cover weakened binding; strength is not graded here. For some assays here: Sequences can lack the tags named with a protein.

Chains of the proteins cited; added tags and fusions are not shown.
UniProt A5PLL7: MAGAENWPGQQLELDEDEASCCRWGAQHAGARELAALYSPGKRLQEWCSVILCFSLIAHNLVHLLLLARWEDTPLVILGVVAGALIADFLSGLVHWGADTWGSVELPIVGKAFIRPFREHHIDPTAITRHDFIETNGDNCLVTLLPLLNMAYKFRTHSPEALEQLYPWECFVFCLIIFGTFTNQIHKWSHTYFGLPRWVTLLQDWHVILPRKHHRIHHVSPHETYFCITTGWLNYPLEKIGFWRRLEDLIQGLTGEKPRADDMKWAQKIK

Experiments:
GFP-ULK1 = molecular target: T1, GFP-ULK1 (UniProt O75385); test: co-IP; HEK293T cells transfected for 24 h; RIPA lysates (1 mg), IP with anti-FLAG or anti-GFP and protein G sepharose, 2 h at 4 °C, five washes, western blot; some panels with or without 50 μM CQ, in TRAF6-/- cells, with FLAG-TMEM189 overexpressed or in stable knockdown cells
T1 sequence: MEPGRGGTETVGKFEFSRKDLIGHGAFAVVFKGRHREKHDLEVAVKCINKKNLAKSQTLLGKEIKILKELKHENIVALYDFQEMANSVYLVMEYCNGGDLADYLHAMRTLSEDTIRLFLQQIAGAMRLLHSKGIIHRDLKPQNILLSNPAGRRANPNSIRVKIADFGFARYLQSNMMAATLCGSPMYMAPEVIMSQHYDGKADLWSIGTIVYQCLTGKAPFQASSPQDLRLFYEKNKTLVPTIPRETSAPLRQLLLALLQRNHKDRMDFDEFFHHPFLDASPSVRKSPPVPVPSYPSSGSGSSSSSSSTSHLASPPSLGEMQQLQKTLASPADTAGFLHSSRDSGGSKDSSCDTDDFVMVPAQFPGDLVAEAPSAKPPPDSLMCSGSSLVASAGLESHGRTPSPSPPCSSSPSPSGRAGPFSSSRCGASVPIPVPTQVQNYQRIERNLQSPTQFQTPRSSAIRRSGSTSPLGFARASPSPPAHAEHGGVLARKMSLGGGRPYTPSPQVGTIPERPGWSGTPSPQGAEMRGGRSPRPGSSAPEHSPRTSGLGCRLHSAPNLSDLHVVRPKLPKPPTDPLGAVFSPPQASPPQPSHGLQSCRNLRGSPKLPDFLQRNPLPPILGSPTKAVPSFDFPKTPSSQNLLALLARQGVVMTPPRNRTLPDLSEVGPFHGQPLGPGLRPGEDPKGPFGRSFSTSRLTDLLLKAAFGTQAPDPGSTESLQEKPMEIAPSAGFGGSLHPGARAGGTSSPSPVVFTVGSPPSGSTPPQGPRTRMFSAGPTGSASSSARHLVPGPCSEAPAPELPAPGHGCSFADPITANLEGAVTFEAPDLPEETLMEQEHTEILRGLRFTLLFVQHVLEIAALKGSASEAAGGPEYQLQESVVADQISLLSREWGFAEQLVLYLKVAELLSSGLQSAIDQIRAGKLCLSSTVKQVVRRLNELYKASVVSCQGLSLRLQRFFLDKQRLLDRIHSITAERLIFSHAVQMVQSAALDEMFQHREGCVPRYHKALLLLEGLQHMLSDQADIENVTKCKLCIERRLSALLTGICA

[1] = molecular target: T2, endogenous ULK1 (human (endogenous in HEK293T and HeLa)) (UniProt O75385); test: co-IP; HeLa cells (untransfected with or without EBSS, IP anti-ULK1; ULK1+/+ cells with FLAG-TMEM189, IP anti-FLAG; stable shcontrol or shTMEM189 cells with GFP-ULK1, IP anti-GFP); RIPA lysates, protein G sepharose, 2 h at 4 °C, western blot
T2 sequence: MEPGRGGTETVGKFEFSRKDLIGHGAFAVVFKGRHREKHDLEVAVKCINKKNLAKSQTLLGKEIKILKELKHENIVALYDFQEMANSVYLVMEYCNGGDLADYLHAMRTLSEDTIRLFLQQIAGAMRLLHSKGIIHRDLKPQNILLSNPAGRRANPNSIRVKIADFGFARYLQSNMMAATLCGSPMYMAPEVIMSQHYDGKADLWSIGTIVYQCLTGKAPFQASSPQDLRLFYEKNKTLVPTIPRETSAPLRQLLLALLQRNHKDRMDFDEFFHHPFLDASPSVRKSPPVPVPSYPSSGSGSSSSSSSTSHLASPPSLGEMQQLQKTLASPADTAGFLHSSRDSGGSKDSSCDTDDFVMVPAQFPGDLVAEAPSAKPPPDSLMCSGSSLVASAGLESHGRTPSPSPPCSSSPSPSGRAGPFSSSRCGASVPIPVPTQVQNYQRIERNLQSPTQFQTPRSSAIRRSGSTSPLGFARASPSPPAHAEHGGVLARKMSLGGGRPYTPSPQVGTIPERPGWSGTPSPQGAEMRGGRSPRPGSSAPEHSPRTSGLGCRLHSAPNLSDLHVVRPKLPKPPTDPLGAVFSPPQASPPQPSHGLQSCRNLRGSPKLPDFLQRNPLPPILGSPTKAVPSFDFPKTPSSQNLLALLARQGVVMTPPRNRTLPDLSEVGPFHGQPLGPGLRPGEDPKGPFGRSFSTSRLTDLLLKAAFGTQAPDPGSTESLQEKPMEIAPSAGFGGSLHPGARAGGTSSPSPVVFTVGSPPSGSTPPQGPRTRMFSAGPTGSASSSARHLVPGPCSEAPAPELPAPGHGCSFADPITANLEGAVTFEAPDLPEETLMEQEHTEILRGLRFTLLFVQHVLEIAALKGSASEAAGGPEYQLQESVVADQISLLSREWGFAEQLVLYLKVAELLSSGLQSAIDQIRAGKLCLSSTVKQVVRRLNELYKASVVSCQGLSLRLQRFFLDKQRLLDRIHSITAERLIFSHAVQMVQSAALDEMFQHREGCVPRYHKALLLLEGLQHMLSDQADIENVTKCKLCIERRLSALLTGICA

GFP-ULK1-CTD^828-1050 = molecular target: T3, GFP-ULK1-CTD^828-1050 (UniProt O75385); test: co-IP; HEK293T cells transfected for 24 h; RIPA lysates (1 mg), IP with anti-FLAG or anti-GFP and protein G sepharose, 2 h at 4 °C, five washes, western blot; some panels with or without 50 μM CQ, in TRAF6-/- cells, with FLAG-TMEM189 overexpressed or in stable knockdown cells
T3 sequence: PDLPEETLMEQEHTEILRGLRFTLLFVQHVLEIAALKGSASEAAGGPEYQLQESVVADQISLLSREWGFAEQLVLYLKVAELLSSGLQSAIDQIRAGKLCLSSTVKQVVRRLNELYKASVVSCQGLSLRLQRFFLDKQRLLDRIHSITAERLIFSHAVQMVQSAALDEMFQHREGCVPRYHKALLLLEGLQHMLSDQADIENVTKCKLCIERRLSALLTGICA

GFP-ULK1-S/T^279-827 = molecular target: T4, GFP-ULK1-S/T^279-827 (UniProt O75385); test: as above
T4 sequence: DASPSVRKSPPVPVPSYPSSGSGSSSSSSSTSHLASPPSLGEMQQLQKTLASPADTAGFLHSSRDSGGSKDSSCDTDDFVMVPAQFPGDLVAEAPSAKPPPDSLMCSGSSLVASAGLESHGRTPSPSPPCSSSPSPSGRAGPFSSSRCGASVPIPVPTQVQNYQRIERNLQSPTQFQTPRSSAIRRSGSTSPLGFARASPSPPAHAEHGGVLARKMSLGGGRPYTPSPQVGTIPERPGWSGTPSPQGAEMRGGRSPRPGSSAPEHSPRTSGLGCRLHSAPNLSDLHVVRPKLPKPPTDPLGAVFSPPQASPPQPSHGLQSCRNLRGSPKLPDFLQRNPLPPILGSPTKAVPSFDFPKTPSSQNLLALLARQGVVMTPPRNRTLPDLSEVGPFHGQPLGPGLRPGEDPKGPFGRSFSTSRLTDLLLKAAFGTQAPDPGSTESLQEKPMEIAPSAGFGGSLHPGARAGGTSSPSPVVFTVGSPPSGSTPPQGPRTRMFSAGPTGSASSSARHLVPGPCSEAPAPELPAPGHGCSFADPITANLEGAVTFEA

GFP-ULK1, O75385 = molecular target: T5, GFP-ULK1, O75385; test: co-IP; GFP-ULK1 and HA-ULK1 co-expressed, with or without FLAG-TMEM189; IP anti-GFP, blot for HA-ULK1; the text says HeLa cells, the legend HEK293T cells; settings: remark: other sources report otherwise
T5 chain: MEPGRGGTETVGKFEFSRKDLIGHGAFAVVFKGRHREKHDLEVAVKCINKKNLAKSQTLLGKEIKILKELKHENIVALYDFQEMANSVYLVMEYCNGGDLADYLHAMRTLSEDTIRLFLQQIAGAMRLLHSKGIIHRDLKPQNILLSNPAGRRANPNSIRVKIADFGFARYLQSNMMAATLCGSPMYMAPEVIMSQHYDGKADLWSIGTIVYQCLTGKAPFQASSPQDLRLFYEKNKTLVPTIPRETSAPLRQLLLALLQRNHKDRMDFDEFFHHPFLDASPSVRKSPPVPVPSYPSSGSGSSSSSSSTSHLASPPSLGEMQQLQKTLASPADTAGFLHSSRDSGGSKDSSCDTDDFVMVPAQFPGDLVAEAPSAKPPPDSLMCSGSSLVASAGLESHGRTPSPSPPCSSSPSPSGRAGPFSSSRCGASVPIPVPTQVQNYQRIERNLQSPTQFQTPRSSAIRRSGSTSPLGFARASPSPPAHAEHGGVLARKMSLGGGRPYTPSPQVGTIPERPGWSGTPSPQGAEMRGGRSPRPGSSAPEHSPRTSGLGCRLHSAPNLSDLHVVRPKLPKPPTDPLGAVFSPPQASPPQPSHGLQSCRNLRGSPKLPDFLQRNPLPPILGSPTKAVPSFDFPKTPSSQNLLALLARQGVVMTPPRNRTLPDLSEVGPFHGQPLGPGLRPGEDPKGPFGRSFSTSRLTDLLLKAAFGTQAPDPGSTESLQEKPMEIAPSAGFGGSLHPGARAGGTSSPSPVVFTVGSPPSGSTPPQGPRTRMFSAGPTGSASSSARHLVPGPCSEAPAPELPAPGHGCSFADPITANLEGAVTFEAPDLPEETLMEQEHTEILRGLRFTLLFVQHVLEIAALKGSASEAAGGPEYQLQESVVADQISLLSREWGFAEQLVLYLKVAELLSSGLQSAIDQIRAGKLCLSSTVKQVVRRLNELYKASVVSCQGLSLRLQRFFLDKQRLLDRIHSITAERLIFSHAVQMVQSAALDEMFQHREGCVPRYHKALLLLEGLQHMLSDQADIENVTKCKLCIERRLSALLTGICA

## FLAG-TMEM189 (from UniProt A5PLL7 1-270)
GFP-ULK1
  binding: binds

## endogenous TMEM189 (from UniProt A5PLL7 1-270)
[1]
  binding: binds

## TMEM189-MYC (from UniProt A5PLL7 1-270)
GFP-ULK1-CTD^828-1050
  binding: no binding
GFP-ULK1-S/T^279-827
  binding: binds

B1: GFP-ULK1, O75385 1-1050 (protein)
chain: MEPGRGGTETVGKFEFSRKDLIGHGAFAVVFKGRHREKHDLEVAVKCINKKNLAKSQTLLGKEIKILKELKHENIVALYDFQEMANSVYLVMEYCNGGDLADYLHAMRTLSEDTIRLFLQQIAGAMRLLHSKGIIHRDLKPQNILLSNPAGRRANPNSIRVKIADFGFARYLQSNMMAATLCGSPMYMAPEVIMSQHYDGKADLWSIGTIVYQCLTGKAPFQASSPQDLRLFYEKNKTLVPTIPRETSAPLRQLLLALLQRNHKDRMDFDEFFHHPFLDASPSVRKSPPVPVPSYPSSGSGSSSSSSSTSHLASPPSLGEMQQLQKTLASPADTAGFLHSSRDSGGSKDSSCDTDDFVMVPAQFPGDLVAEAPSAKPPPDSLMCSGSSLVASAGLESHGRTPSPSPPCSSSPSPSGRAGPFSSSRCGASVPIPVPTQVQNYQRIERNLQSPTQFQTPRSSAIRRSGSTSPLGFARASPSPPAHAEHGGVLARKMSLGGGRPYTPSPQVGTIPERPGWSGTPSPQGAEMRGGRSPRPGSSAPEHSPRTSGLGCRLHSAPNLSDLHVVRPKLPKPPTDPLGAVFSPPQASPPQPSHGLQSCRNLRGSPKLPDFLQRNPLPPILGSPTKAVPSFDFPKTPSSQNLLALLARQGVVMTPPRNRTLPDLSEVGPFHGQPLGPGLRPGEDPKGPFGRSFSTSRLTDLLLKAAFGTQAPDPGSTESLQEKPMEIAPSAGFGGSLHPGARAGGTSSPSPVVFTVGSPPSGSTPPQGPRTRMFSAGPTGSASSSARHLVPGPCSEAPAPELPAPGHGCSFADPITANLEGAVTFEAPDLPEETLMEQEHTEILRGLRFTLLFVQHVLEIAALKGSASEAAGGPEYQLQESVVADQISLLSREWGFAEQLVLYLKVAELLSSGLQSAIDQIRAGKLCLSSTVKQVVRRLNELYKASVVSCQGLSLRLQRFFLDKQRLLDRIHSITAERLIFSHAVQMVQSAALDEMFQHREGCVPRYHKALLLLEGLQHMLSDQADIENVTKCKLCIERRLSALLTGICA
GFP-ULK1, O75385
  binding: binds
